We go through 61 compounds from PubChem BioAssay AID493035 (The Scripps Research Institute Molecular Screening Center, 2011).

Where “and” joins values, the source holds several entries; their conditions need not be identical. Equal entries are not always repeated. The campaign covered roughly 2,000 compounds. About 45 (2%) were called active.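 Rule for the calls: active = inhibition above the mean of all tested compounds plus 3 SD (cut at about 49% in these data); inactive = the rest.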 The list shows a part of the results.

What is called inhibition is the drop in the measured response relative to a control, in per cent.

The test concerns the target Perilipin-5 (Homo sapiens) + 1-acylglycerol-3-phosphate O-acyltransferase ABHD5 (Homo sapiens) (UniProt Q00G26+Q8WTS1). Briefly: blockers of ABHD5 binding to perilipin-5 – cell lysate, split luciferase complementation, luminescence, NIH validation set, pilot screen (AID 493035).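 Note: 0% = DMSO only wells while the 100% control is not stated.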 The settings on record: split G. princeps luciferase complementation, lysates, 4 h; at 7.9 µM, active compounds read high.
Sequence of UniProt Q00G26 (Q00G26 whole entry, looked up): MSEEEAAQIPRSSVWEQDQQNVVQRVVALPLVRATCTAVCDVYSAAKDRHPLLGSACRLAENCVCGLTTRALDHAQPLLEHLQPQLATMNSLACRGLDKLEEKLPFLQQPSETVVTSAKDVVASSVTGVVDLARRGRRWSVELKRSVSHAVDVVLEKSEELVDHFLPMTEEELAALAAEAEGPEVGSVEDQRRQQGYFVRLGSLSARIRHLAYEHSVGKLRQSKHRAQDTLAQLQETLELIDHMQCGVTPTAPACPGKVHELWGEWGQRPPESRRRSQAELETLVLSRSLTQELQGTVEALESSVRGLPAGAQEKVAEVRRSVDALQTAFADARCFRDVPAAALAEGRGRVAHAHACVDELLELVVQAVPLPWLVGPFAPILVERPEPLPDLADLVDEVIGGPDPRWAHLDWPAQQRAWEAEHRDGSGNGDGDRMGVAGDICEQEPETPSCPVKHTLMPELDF
Sequence of UniProt Q00G26 (Q8WTS1 whole entry, looked up): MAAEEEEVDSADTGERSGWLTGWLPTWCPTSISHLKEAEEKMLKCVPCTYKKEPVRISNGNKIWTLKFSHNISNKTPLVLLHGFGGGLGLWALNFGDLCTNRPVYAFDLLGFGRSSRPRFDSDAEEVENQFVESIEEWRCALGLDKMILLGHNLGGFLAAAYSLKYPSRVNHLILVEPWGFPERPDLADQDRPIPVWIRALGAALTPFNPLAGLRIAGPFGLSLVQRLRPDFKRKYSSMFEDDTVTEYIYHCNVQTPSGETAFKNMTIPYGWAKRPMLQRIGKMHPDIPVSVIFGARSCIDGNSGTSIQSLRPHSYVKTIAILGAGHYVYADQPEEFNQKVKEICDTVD
For the compound `Cc1ccc(CSCC(=O)NCCCN2CCOCC2)cc1`, the inhibition is inactive: 2.33%.
In the case of `O=[N+]([O-])c1ccc2cn[nH]c2c1` it was inactive: -0.39%.
With `CC(=O)C1=C(Nc2ccc(C)cc2)CC(C)(O)C(C(C)=O)C1c1ccco1` (stereo unspecified), the inhibition was inactive: 13.9%.
`CCn1c(=N)c(C(=O)NC)cc2c(=O)n3cccc(C)c3nc21`: the inhibition was inactive: -14.8%.
In the case of `CC(C)C12CN3CC(C(C)C)(CN(C1)C3c1ccccc1)C2O` (stereo unspecified) it was inactive: -7.93%; in that of `OCCN(CCO)c1nc(N2CCCCC2)c2nc(N(CCO)CCO)nc(N3CCCCC3)c2n1`, inactive: 9.95%.
In the case of `Cc1ccc(C2CC(=O)C(C=NCCN3CCN(CC(=O)Nc4cc(C)cc(C)c4)CC3)=C(O)C2)cc1` (stereo unspecified) it was inactive: -1.4%.
In the case of `O=C(O)c1ccc(-c2ccc(O)c(F)c2)cc1` it was inactive: -3.97%; in that of `Cc1cc(=O)oc2c(CN(C)Cc3ccccc3)c(O)ccc12`, inactive: -4.14%.
In the case of `NC(=O)C1CCCNC1` (stereo unspecified), the inhibition is inactive: -20.4%.
On to `CC(C)COC(=O)C1C(=O)CC(C)(O)C(C(=O)OCC(C)C)C1c1cccnc1` (stereo unspecified), for which the inhibition was inactive: 1.33%.
With `CCCCOn1c(C)c(C(C)=O)c2c3no[n+]([O-])c3ccc21`, the inhibition was inactive: -1.85%.
In the case of `Nc1nc(Cl)nc2c1ncn2[C@@H]1O[C@H](CO)[C@@H](O)[C@H]1O` it was inactive: -3.55%; in that of `CCOC(=O)c1oc2cc(O)cc(C)c2c(=O)c1-c1cscn1`, inactive: 0.62%; in that of `COc1ccc(N2C(=O)C3C(C2=O)C(C(=O)c2ccccc2)N2CCCC32)cc1` (stereo unspecified), inactive: 21.4%.
In the case of `COc1cccc(C2CCCN2Cc2nc(CCC(C)C)no2)c1` (stereo unspecified) it was inactive: -10.5%; in that of `O=C1N[C@@H](Cc2cnc[nH]2)C(=O)N2CCC[C@@H]12`, inactive: -13.3%; in that of `C[C@@H]1C[C@H]2[C@@H]3CCC4=CC(=O)C=C[C@]4(C)[C@@]3(F)[C@@H](O)C[C@]2(C)[C@@]1(O)C(=O)COP(=O)(O)O`, inactive: -13.3%.
In the case of `CC(=O)C1=C(NC(=O)c2ccc(C(F)(F)F)cc2)C[C@@H]2[C@H]1C2(C)C` it was inactive: -15.1%.
Take `COc1ccc(CC(=O)Nc2cccc(C(=O)Nc3ccccc3C(=O)O)c2)cc1OC`: the inhibition is inactive: 0.92%.
In the case of `CC(C)(C)N1NC2(CCCCC2)NC1=S` it was inactive: 6.12%.
In the case of `O=C(O)C1CSC(c2ccco2)N1` (stereo unspecified) it was inactive: 26.7%; in that of `COc1ccc(-c2cc(=O)oc3cc(OC(C)C(=O)O)ccc23)cc1` (stereo unspecified), inactive: 1.1%.
In the case of `Cc1c(Cc2ccccc2)c(=O)oc2c(CN(C)C)c(O)c(Cl)cc12` it was inactive: 9.82%; in that of `CC(C)CC(NC(=O)CNC(=O)C1O[C@@H]2OC(C)(C)O[C@@H]2[C@H]2OC(C)(C)O[C@@H]12)C(=O)O` (stereo partly specified), inactive: 5.95%.
With `COC(=O)[C@H]1[C@H]2C[C@@H]3c4[nH]c5cc(OC)ccc5c4CCN3C[C@H]2C[C@@H](OC(=O)c2ccc(N)cc2)[C@@H]1OC`, the inhibition was inactive: 26.7%.
In the case of `COc1ccc2c(C=O)cn(C)c2c1` it was inactive: -3.79%; in that of `CSCC[C@H](NC(=O)NC1CCCC1)C(=O)O`, inactive: 3.47%; in that of `CC1(C)NC(C(=O)O)Cc2c1[nH]c1ccccc21` (stereo unspecified), inactive: -10.4%.
In the case of `COc1ccc2cc(-c3nc4ccccc4n3C)c(=O)oc2c1` it was inactive: -5.19%; in that of `O=C(Nc1ccccc1)OCC1CCCN2CCCCC12` (stereo unspecified), inactive: -3.5%; in that of `COc1cc(C2C(C(C)=O)=C(O)C(=O)N2c2ccc(C)cc2)ccc1O` (stereo unspecified), inactive: 1.35%.
In the case of `CC(C)=CCC/C(C)=C/CC/C(C)=N/O` it was inactive: -2.69%; in that of `COC(=O)C1[C@H]2C(=O)N(Cc3cccs3)C[C@]23C=C[C@H]1O3` (stereo partly specified), inactive: -1.7%.
For `CC(C)OC(=O)C(C)(C)Oc1ccc(C(=O)c2ccc(Cl)cc2)cc1`, the inhibition was inactive: -6.77%.
In the case of `CC(C)NC(=O)C1(c2ccccc2)CCOCC1` it was inactive: -1.27%; in that of `COc1cccc(/C=C/C(=O)c2c(O)cc(C)oc2=O)c1O`, inactive: 44.4%; in that of `COc1ccccc1/C=C/C(=O)c1c2c(c(C)[nH]c1=O)CCCC2`, inactive: 40.9%.
As for `CCN1C(=O)C(CC(=O)Nc2ccc(F)cc2)N(Cc2ccc3c(c2)OCO3)C1=S` (stereo unspecified), the inhibition is inactive: -0.32%.
In the case of `CN(C)CCOc1ccc(Cl)cc1C(C)(C)C` it was inactive: -8.58%; in that of `CC(=O)c1c(C)[nH]c(C(=O)OCc2ccccc2)c1C`, inactive: -8.43%.
For the compound `CCc1cc(=O)oc2cc(C)c(CN3CCCC(C)C3)c(O)c12` (stereo unspecified), the inhibition was inactive: 15.1%.
In the case of `COC(=O)CCC(=O)CN` it was inactive: 1.69%.
In the case of `N#C/C(=C\c1ccc(O)c(O)c1)C(=O)NCCCc1ccccc1` it was inactive: 28.2%.
Turning to `COc1ccc(-c2[nH]ncc2CN(CCO)Cc2cccs2)c(F)c1`, the inhibition is inactive: -7.6%.
Regarding `CCOC(=O)C1CCCN(Cc2nc(Cc3cccc(F)c3)no2)C1` (stereo unspecified), the inhibition is inactive: -2.87%.
In the case of `CCOc1ccc(C(=O)NCC2(c3ccccc3)CCOCC2)cc1` it was inactive: 0.52%.
In the case of `CCOc1ccc2nc(S(N)(=O)=O)sc2c1` it was inactive: -10.3%; in that of `Nc1ccc(N)c(C(=O)O)c1`, inactive: -0.31%; in that of `CN1CCCN(C(c2ccccc2)c2ccc(Cl)cc2)CC1` (stereo unspecified), inactive: -1.84%.
In the case of `O=C(O)c1ccccc1O` it was inactive: -3.25%; in that of `CCNCCC(CCC(C)C)c1ccc2c(c1)OCO2` (stereo unspecified), inactive: 2.05%.
Consider `C/C(NC(=O)c1cccs1)=C1\C(=O)C[C@@H]2[C@H]1C2(C)C`, for which the inhibition was inactive: 4.33%.
Take `O=P(c1ccccc1)(c1ccccc1)c1nc(-c2ccc(Cl)cc2)oc1N1CCOCC1`: the inhibition is inactive: -3.77%.
In the case of `Cc1cc(/C=N/O)c(C)n1-c1ccc(Br)cc1` it was inactive: 9.12%; in that of `Cc1cc(O)c2/c(=N\N)c(-c3csc(C)n3)coc2c1`, inactive: 9.92%.
In the case of `CC1(C)S[C@@H]2[C@H](NC(=O)[C@H](N)c3ccccc3)C(=O)N2[C@H]1C(=O)O` it was inactive: -3.69% and inactive: -5.4%.
In the case of `CC(=O)NCCCC(=O)NC(CCC(=O)OCc1ccccc1)C(=O)OCc1ccccc1` (stereo unspecified) it was inactive: -3.63%; in that of `O=c1n(CCCN2CCN(c3cccc(Cl)c3)CC2)nc2ccccn12`, inactive: -2.45%; in that of `CC12CCC(C(=O)NNc3ccccc3)(C(=O)C1=O)C2(C)C` (stereo unspecified), inactive: 10.3%.
As to `OC12CCCCC1C(c1ccc3c(c1)OCO3)N(Cc1cccc(F)c1)CC2` (stereo unspecified), the inhibition is inactive: -7.02%.
